To fix the notation:
B1: CPEB3 Ribozyme (parent)
chain: UAACAGGGGGCCACAGCAGAAGCGUUCACGUCGCAGCCCCUGUCAGAUUCUGGUGAAUCUGCGAAUUCUGCUGUAUAUCUC

Read counts are not given, so values of variants with three or more changes are uncertain.

In this data set the parent is B1. The experiment in a line: self-cleavage, relative activity (ratio to wild type); higher = more cleavage; in vitro, sequencing. The essentials: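 Relative activity compares each variant's cleaved/total read fraction with that of the unmutated ribozyme. To get these fractions, barcoded CPEB3 ribozyme libraries from rounds of error-prone PCR were transcribed with T7 RNA polymerase for 5 hours at 37°C and then given 15 min of DNase I treatment before EDTA was added. The RNAs were reverse transcribed with template switching and sequenced on Illumina, and DNA sequencing linked barcodes to variants. A minimum of 5 reads applied, and three batches were averaged.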
Regarding G6U A18G C32A A45G C59A U78C C81U, the self-cleavage was 0.03.
Next, G7C U43A U49C U51C: 0.21; G6U A20C U43A U54C U74C: 0.1.
For G8A A21G U25C U43A U60A U78C, the self-cleavage worked out at 0.05.
Next, G7C C37A U54A: 0.24; G7U G10A U41A U43C U51C A56U A64U: 0.07; G7A A15G A65U: 0.22.
As for G8A U31A U60C U78C, the self-cleavage is 0.05.
Next, G7U G36U A56G U78C: 0.05; G8A A18U A47G: 0.08; G7C G10U A21G A45U U54C A64U: 0.05.
Turning to G7U C23A U26C U41C A47C U76C, the self-cleavage was found to be 0.14.
Next, G8A A18G A20U U26C U66C: 0.19.
Next, G6U A21G U26C U66G U78C: 0.21; G7U C17U A28U A57G U67A: 0.07.
With G6U G8U A45U A56U, the self-cleavage was 0.13.
Next, G7U A45G U51A: 0.42.
Next, G8C A13U U43G U49A U51G: 0.05; G8A G36C U41C U43C C59A U80C: 0.06.
Next, G7U A21G U69C U72C: 0.17; G8A C11U G24A A35U U41C A45U U60A: 0.13; G7U A28U U51A G53A: 0.17.
Take G8A C11U A21G A64G U67C A77U C81A: the self-cleavage came to 0.03.
Next, G6U U43C U51C U60C U72C U76C U80C: 0.08; G8A A13U C17U U49C U72C: 0.23; G7U A21G U41C A56G A64G: 0.07.
With G6U A18U C34U the figure was 0.18; with G8A A21G A56U A64U U66C U69A, 0.07; with G6U A57G C79A, 0.24.
With G7A A35U U41A A56G U72A the figure was 0.08; with G7U A21G U31C A35G C38A G46A U78C, 0.02; with G6U U26C U31A U43A A64G, 0.07.
For G7U G16A A21G U31C, the self-cleavage was 0.14.
Next, G8A U54C A57C G63A U78C: 0.09; G7C A18G A45U A56U U60C U69C: 0.12; G7A A35U U48C: 0.17.
As for G6U A20G A56G, the self-cleavage worked out at 0.12.
As to G8A A20C U31A, the self-cleavage stood at 0.35.
With G8A U25C U72C U80A the figure was 0.08; with G7A A21G U60C A64G U67C C68A, 0.07; with G7A U43C U69C, 0.13.
Consider G6U A15U U72C, for which the self-cleavage was found to be 0.1.
Next, G7U C14U U69C: 0.05.
With G7A A18G A35U A65G the figure was 0.05; with G7U U51A U67A U74A A75G, 0.26; with G7U C12U A21G, 0.37.
With G7U G10U A20U A35G U48A U74C the figure was 0.04; with G7C A18G U60C A64G, 0.08.
For G7U U31C G33A U60A G70A, the self-cleavage was found to be 0.06.
Next, G8A A21G U54C: 0.07; G7A C11U A45G: 0.24.
With G7A G30C U51A U54C A56G U60C A77G the figure was 0.06.
Take G7A G10C U54A A56U U66C: the self-cleavage was 0.16.
With G7U A64G U67A the figure was 0.17.
Take G7C A15U C32A U80G: the self-cleavage was found to be 0.06.
Next, G8A A47U A77G: 0.15.
Next, G8A A47U G55A C71U: 0.04; G7U G10C C40G U78C: 0.1.
Next, G7A U58A U78C: 0.07; G7A U25C U66C U69C: 0.07.
Regarding G7A A35U U41A, the self-cleavage came to 0.12.
Next, G7C G30A C32A A45U U51C A64G: 0.05.
Consider G8A C14U A20G G70U, for which the self-cleavage was found to be 0.17.
With G8A A21G C38A U74C U80A the figure was 0.03.
In the case of G8A U26C A35U, the self-cleavage is 0.24.
With G7A C29U C50A A64G U76C the figure was 0.06; with G7U G19C A20G U72C, 0.31.
With G7U G24A U31C the figure was 0.4.
With G6U U25C G36U the figure was 0.26; with G8A A45C U51A C62U, 0.06.
As for G8A U25A A28G C39U U67G U74C U78C, the self-cleavage amounted to 0.03.
With G7A U49A G52A the figure was 0.4.
Next, G7A U31C C59A: 0.16; G7U A21G A56G U60C C62G: 0.08.
With G8A G36A U41A U69C U72C A77U the figure was 0.06; with G7A U26C U58C A64G U72C, 0.05; with G6U G8A A21G U67C U80C, 0.05.
On to G7U A28G U54G A57U G61A G73C, for which the self-cleavage was found to be 0.06.
With G8A A20G U26C A64G U74C the figure was 0.05; with G8A G30C U58C, 0.07; with G7U A20U U26A C37A U49C, 0.49.
Next, G8A U43C A56G: 0.06; G7C G19C C32U G42A U80C: 0.12; G6U A15G U41A U72A: 0.09.
Next, G7A U49C A57G: 0.37; G8A C40G A56G: 0.07.
Turning to G7U G8A U43C U49C U60C U66C U78C, the self-cleavage was 0.06.
Next, G8A A20G A28G: 0.37.
With G7U A18U A28G U41A the figure was 0.15; with G8A U43A U54G, 0.23.
Regarding G7A A15U A64G U76C, the self-cleavage was found to be 0.2.
Next, G7A U26A U41C A56U: 0.06.
For the variant G7U G9C A18C U25C U41G A57U, the self-cleavage is 0.05.
With G8A A56G A65G U76C the figure was 0.06; with G7U C40U G46A U51C U69A C71U, 0.12.
Next, G7C A15U G33A G52A A56G: 0.04; G7A A28U A57G: 0.15.
With G7A U41C G42A U74A U78C the figure was 0.22.
As for G7C A20G U31C U60A, the self-cleavage turned out to be 0.24.
With G8A A35G U49C U80C the figure was 0.25.
With G7C G10A G33C A75U the figure was 0.17; with G6U U51A A64G U67G, 0.05; with G8A G10A G19A U25G C62U G70A U76A, 0.03.
G7U U25C U49C U80C: the self-cleavage turned out to be 0.03.
On to G6U A15G C38A U48C A57U C68G, for which the self-cleavage came to 0.04.
With G7A C17U G30U U41C U80C, the self-cleavage came out at 0.07.
With G7A C11U A18G the figure was 0.06.
Consider G7C C14U G33C C38A U41C U48C, for which the self-cleavage worked out at 0.02.
With G6U U51C U72C the figure was 0.2; with G6U A35U U60C A64G, 0.06; with G8A A18U G24A U41G U54C A57G U80C, 0.04.
On to G6U A15G A20G U54C U60C A64U, for which the self-cleavage is 0.
Next, G7U A18U A35U U41A: 0.12; G7A A15G U25C A56U G70C U72G: 0.19; G7U A35U U72C: 0.18.
Next, G8A A15G A18G U25C A28U: 0.05.
Consider G6U U26C A28C U48C U67C U69A, for which the self-cleavage was determined as 0.22.
Next, G7A A18G C23U U43A A57G: 0.05; G6U U69A U72C A75G: 0.15; G7U A18U A45C U51C U54G A57C U76C: 0.11.
With G7A U43C A64U U72C the figure was 0.24; with G7A A21G A64G U66C, 0.18.
With G8A A20G A21G U26A U74G U78C the figure was 0.05; with G8A U41C U54G U80A, 0.07; with G8A A18G A28U U66C, 0.06.
G7A U25C A35U A75G: the self-cleavage came out at 0.02.
Next, G7A A28G U41C: 0.08; G8A C23G U25C G52U G73A: 0.06; G8A A15G A20G A35G U69C: 0.02.
With G8A U51A A57U the figure was 0.06; with G7C A18G A28G A65G U78C, 0.11; with G6U A18G U51G A65G U76A, 0.16.
Next, G6U U31A U51A: 0.21; G7U C32A A57G U78C: 0.19.
In the case of G8A A21G A28U A35G A77G, the self-cleavage amounted to 0.19.
With G8A G52A A64G the figure was 0.11.
Turning to G7U A28G A56G, the self-cleavage stood at 0.13.
With G7A A28U A56U the figure was 0.06; with G7U G8A A13U G22U, 0.06.
Consider G8A A18U U31C A35C U58C, for which the self-cleavage was found to be 0.04.
With G6U U41C G42C U51C A64G U72C A77G the figure was 0.05; with G6U A21G U49C, 0.08.
With G7A A18U A28G A35U C50U U72G A75G the figure was 0.04; with G7A U49C U69C A77U, 0.17.
Next, G6U A15U C29U U41C A45G U58A: 0.06; G7U A28G A57G: 0.15; G8C A15G C59U U60C U78C: 0.06.
Consider G7A G33A A35U, for which the self-cleavage was found to be 0.15.
Next, G8A A57G U78C: 0.36; G6U U43A U67C U69C: 0.27.
Turning to G8A U49C U66A A77G U80A, the self-cleavage came out at 0.05.
G7A A21G U41C G63U A64C: the self-cleavage turned out to be 0.19.
Next, G8A C17G A35U: 0.17.
For the variant G8A A47G A57G U80C, the self-cleavage is 0.06.
On to G8A A45G U67C, for which the self-cleavage was found to be 0.12.
With G7A A20G U26A U54A A77G the figure was 0.06.
With G7C A45G U58C U69C, the self-cleavage came to 0.06.
Take G7A C11U A28U: the self-cleavage was determined as 0.06.
Turning to G7A C39A U49C, the self-cleavage was 0.35.
Next, G6U A20U U41A A56G U80C: 0.07.
With G8A C38U U51C U54C A56G U74C U76A the figure was 0.03.
Next, G7A U26C A28U A45G U54C: 0.07; G7A U60C U66C: 0.06.
Take G8A A13G C40U G55A A56C A57G U76C: the self-cleavage is 0.05.
Next, G8A U31C A65G U80C: 0.06; G7A A28G U31G U49C: 0.05; G8A A13U A15U U26A U51A U80C: 0.07.

(Values after the RNAGym collection of RNA variant scans (doi:10.1093/nar/gkz1192).)
